Experimental data as given in PubChem BioAssay AID1454 (National Center for Advancing Translational Sciences (NCATS), 2008).
Hit rate of the full screen: of about 130,000 compounds, about 550 (0.42%) were called active. Inconclusive results (about 4%) are left out. Calls follow the shape of the dose curve; as a rule, active = well fitted inhibition curve with a large enough effect; inconclusive = small, poorly fitted or top-dose-only effect, or effect the other way; inactive = flat fitted curve, though single readings scatter. Only a part is listed here, and it is no random draw. Some structures have more than one record in an assay (separate samples or runs), and their calls can disagree.

test: qHTS Assay for Inhibitors of the ERK Signaling Pathway using a Homogeneous Screening Assay; Stimulation with EGF; conditions: HEK293-V1b, EGF-stimulated phospho-ERK AlphaScreen; activity change, negative = inhibition: at the top concentration; also: nearly all actives have a fitted effect of over 55% in size
Excerpt: NIH Chemical Genomics Center [NCGC]
NIH Molecular Libraries Screening Centers Network [MLSCN]
Assay Submitter (PI): Dr. Wei Zheng, NCGC/NIH
The Ras/extracellular-signal-regulated kinase (ERK) mitogen activated protein (MAP) kinase signaling pathway (ERK1/2 cascade) plays a key role in transmitting signals from the cell surface to the nucleus (Nishida and Gotoh 1993; Chang and Karin, 2001). The cascade is initiated by the small G-protein Ras, which recruits Raf from the cytosol, where activation occurs. Alternatively, this pathway can be activated by elevating intracellular cAMP, or by activation of a receptor tyrosine kinase as epidermal growth factor receptor.
Activation of the ERK pathway is essential in increased cell division and cell survival. Sustained and constitutive activation of the ERK pathway, however, has been linked to uncontrolled cell proliferation, increased cell survival, and tumor progression. Thus, the ERK has been as an attractive target for cancer chemotherapy in the past few years (Sebolt-Leopold and Herrera, 2004). Given its physiological and pathological importance, assessment of ERK phosphorylation has been broadly performed in both basic research and drug discovery. Most assays for the measurement of ERK phosphorylation use the antibody-based detection methods, such as western blot and ELISA. These assays require multiple reagent additions with cell wash steps and are not suitable for high throughout screening.
The current cell-based ERK phosphorylation assay was performed using AlphaScreen platform. AlphaScreen is a two bead-based proximity-dependent chemical energy transfer luminescent assay platform. The assay reagents (ERK SureFire(TM) kit) were supplied from TGR BioSciences (Australia). In the presence of specific antibodies, phosphorylated ERK will bring "donor" and "acceptor" beads to a proximity range (<200 nm), and subsequently lead a chemical luminescent reaction upon exciting donor beads with 680 nm laser. To exclude the assay-related false positives, we used a biotinylated rabbit IgG to perform counter-screen. The biotinylated antibody mimics the phosphorylated ERK1/2 for bringing streptavidin coated beads and protein-A coated beads to a proximity range for the AlphaScreen detection.
NCGC Assay Protocol Summary:
HEK293 cells stably expressing type-1 vasopressin receptor (V1b) were maintained in DMEM medium (Invitrogen, Carlsbad, CA) at 37C under a humidified atmosphere containing 5% CO2 and 95% air. The medium contained 10% FBS, 2 mM L-glutamine, non-essential amino acid, pyruvate and 50 U/ml penicillin and 50 ug/ml streptomycin (Invitrogen). The aliquots of frozen cells were stored at -135C and used for the compound screening. All compounds were screened as titrations from 0.6 nM to 46 uM final concentration. Epidermal growth factor (EGF) was used to stimulate the ERK phosphorylation pathway. The ERK phosphorylation in cells was determined using an AlphaScreen assay kit provided by […]. Data were normalized to the controls for basal activity (DMSO only) and 100% activation (25 nM EGF). AC50 values were determined from concentration-response data modeled with the standard Hill equation.
(1) Seed 4 ul/well of resuspended frozen HEK293 cells containing 2000 cells in white 1536-well plates for overnight with 1% FBS at 37C under a humidified atmosphere containing 5% CO2 and 95% air.
(2) Add 23 nL compounds in DMSO solution. The final titration was 0.6 nM to 46 uM.
(3) Incubate at 37C for 30 min.
(4) Dispense 0.5uL EGF (25 nM in final)
(5) Incubate at 37C for 5 min.
(6) Dispense 0.5uL of 1:2 diluted 5x lysis buffer.
(7) Incubate at 37C for 10 min.
(8) Dispense 1.5uL of mixture of activation buffer and reaction buffer with AlphaScreen beads (streptavidin donor beads and protein-A acceptor beads, 10 ng/well for each).
(9) Incubate at room temperature for 5 hr.
(10) Detect the assay plate in an EnVision plate reader (PerkinElmer) using the AlphaScreen detection mode.
[…]
Potency is read from the fitted curve at half-maximal effect.

Potency, inactive:
COc1ccc(-c2cc(=O)c3c(OC)c(OC)c(OC)c(OC)c3o2)cc1OC
NCCc1ccc(O)c(O)c1
OC(CCN1CCCCC1)(c1ccccc1)c1ccccc1
CN1CCC(=C2c3ccccc3CCc3sccc32)CC1
CCCCCCCCCCCC1=C(O)C(=O)C=C(O)C1=O
CCc1oc2ccccc2c1C(=O)c1cc(Br)c(O)c(Br)c1
C#CCN(C)CCCOc1ccc(Cl)cc1Cl

Potency, active:
O=C1c2ccccc2C(=O)c2c(Nc3ccc(CCO)cc3)ccc(O)c21 14.1 µM
CC1=NN(c2ccccc2)C(=O)C1N=Nc1ccccc1 (centres undefined) 11.2 µM
COc1cc(/C=C2/C(=O)c3cccc([N+](=O)[O-])c3C2=O)c(Br)cc1O 28.2 µM
CC1CCN(C2=C(NS(=O)(=O)c3ccccc3)C(=O)c3ccccc3C2=O)CC1 17.8 µM
O=C(NCCc1cn2ccccc2n1)c1cc(COc2ccc3ncccc3c2)on1 28.2 µM
C=CC[n+]1c(/C=C2\C=Cc3cc(C)ccc3N2CC)ccc2ccccc21 22.4 µM
CCCCN1C(=O)c2ccc(C(=O)Nc3ccc(C)c(S(=O)(=O)N(C)C)c3)cc2C1=O 25.1 µM
CCN(CC)c1ccc(NC2=C(Cl)C(=O)c3ccccc3C2=O)cc1 10 µM
Cc1cc(N=Nc2ccc(Cl)cc2)cc(CN2CCCC2)c1O 31.6 µM
O=C(Nc1cccc(Br)c1)c1ccc(OC2CSC2)cc1 25.1 µM
Fc1cccc(Nc2ncnc3sc4c(c23)CCC4)c1 3.16 µM
CC1(C)CC(C(CCN(Cc2ccccc2)C(=O)c2ccco2)c2ccc(F)cc2)CCO1 (centres undefined) 22.4 µM
O=C1C=C(Nc2ccc(Cl)cc2)CC(c2ccc(Cl)cc2)C1 (centres undefined) 14.1 µM
CC(=O)/C(=N/Nc1ccccc1[N+](=O)[O-])N1CCCc2ccccc21 12.6 µM

Activity change, negative = inhibition, inactive:
C[C@@]12C(=O)OC(=O)[C@@]1(C)[C@@H]1CC[C@@H]2O1 -17.6%
O=C(Nc1ccccc1)/C(=C/c1ccc2c(c1)OCO2)NC(=O)c1ccco1 6.36%
CC(C)(C)NC(=O)[C@H]1CC[C@H]2[C@@H]3CC[C@H]4NC(=O)C=C[C@]4(C)[C@H]3CC[C@]12C 24.4%
CCCCCCCCN[C@@H](C)[C@H](O)c1ccc(SC(C)C)cc1 1.04% [at 25.7 µM]
O=C1C=CC2=C3c4cc(O)c(O)cc4CC3(O)COC2=C1O (centres undefined) 5.21%
N[C@H](Cc1ccc(O)c(O)c1)C(=O)O 2.39%
CC(=O)O[C@H]1CC2(C)[C@@H](C[C@@H](O)[C@H]3[C@@]4(C)CC[C@@H](O)[C@@H](C)[C@@H]4CC[C@@]32C)C1=C(CCC=C(C)C)C(=O)O (some centres undefined) 5.18%
O=C(NCc1ccccc1)C1=C[C@H](c2csc3ccccc23)C[C@H](OCCCCO)O1 -6.6% [at 57.5 µM]
N[C@@H](Cc1ccc(O)c(O)c1)C(=O)O 5.25% [at 25.7 µM]
O=C1c2c(O)ccc(O)c2C(=O)c2c(NCCNCCO)ccc(NCCNCCO)c21 11.8% [at 25.7 µM]
COC(=O)[C@@]1(Cc2ccc(OC)cc2)[C@H]2c3cc(C(=O)N(C)C)[nH]c3C[C@H]2CN1C(=O)c1ccccc1 -2.58%
CN1CCN(c2c(F)cc3c(=O)c(C(=O)O)cn4c3c2SCC4)CC1 5.43%
COC(=O)C1=C(C)NC(C)=C(C(=O)OCCN(C)Cc2ccccc2)C1c1cccc([N+](=O)[O-])c1 (centres undefined) -2.48% [at 57.5 µM]
Cc1cccc(CN2CCN([C@@H](c3ccccc3)c3ccc(Cl)cc3)CC2)c1 -1.61% [at 25.7 µM]
CC1(C(=O)NCCc2c[nH]c3ccccc23)C=CCN1C(=O)c1ccccc1 (centres undefined) -6.71%
CCC(C)C(=O)OC1CCC=C2C=CC(C)C(CCC3CC(O)CC(=O)O3)[C@@H]21 (some centres undefined) 19.1%
C=C[C@@]1(C)CC(=O)[C@@]2(O)[C@@]3(C)[C@@H](O)CCC(C)(C)[C@@H]3[C@H](O)[C@H](OC(C)=O)[C@@]2(C)O1 -5.31%
C[C@@H]1CCC2C(C)(C)C3CC21CC[C@@]3(C)O (some centres undefined) -14.1%
COc1cc2c(cc1OC)-c1c(OC)c(OC)cc3ccnc(c13)C2=O 0.74%
CC1(C)CCC2=C(O1)c1ccccc1C(=O)C2=O -5.73%
Cn1c(=O)c(C(=O)COC(=O)c2cc(C(F)(F)F)nc3c(C(F)(F)F)cccc23)c(N)n(CC2CC2)c1=O 9.47%
O=C1C(SCCO)=C(SCCO)C(=O)c2ccccc21 -2.02%
C=CCC1C=C(Cc2ccccc2)CC(CC=C)N1 (centres undefined) -0.867%
COC(=O)C1=C(C)NC(C)=C(C(=O)OCCN(C)Cc2ccccc2)[C@H]1c1cccc([N+](=O)[O-])c1 9.79% [at 25.7 µM]
Cc1csc(=Nc2ccccc2)n1C -0.549%
CCC(C)n1ncn(-c2ccc(N3CCN(c4ccc(OCC5COC(Cn6cncn6)(c6ccc(Cl)cc6Cl)O5)cc4)CC3)cc2)c1=O (centres undefined) -8.44% [at 57.5 µM]
Nc1ncnc2c1ncn2[C@@H]1O[C@@H](CO)[C@H](O)[C@H]1O 10.1% [at 25.7 µM]
CC(C)(CO)Cc1cc(C(C)(C)C)c(O)c(C(C)(C)C)c1 3.48%
